± gives the standard deviation of the averaged measurements. The list shows a part of the results.
The sequences below were run on PfAP2-EXP AP2 domain (GST-tagged) (assay: gcPBM binding intensity (ln(normalized median fluorescence intensity)); higher = stronger DNA binding).
Procedure, shortened: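 An Agilent 4 × 180k array of primer-extended double-stranded 36-bp intergenic genomic probes, with negative controls, was incubated for 1 h with GST-tagged P. falciparum DNA-binding domains expressed in E. coli. Alexa488 anti-GST antibody detected bound protein, scanned at 488 nm. Binding intensity is the highest Masliner-normalised natural-log median intensity across replicate spots of either probe orientation.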

| Sequence | gcPBM binding intensity (ln) |
| --- | --- |
| AAATGAAATTTGTATACACACAAATATATTTATATA [CACACA_site6525] | 8.26 ± 0.4 |
| AATAAATAAATAATATAATGAAATTATAAAATGTGG [TGCATGCA_negctrl_site385] | 8.44 ± 0.32 |
| TATTAAAAAAATGTATGTACATATATAAATTTTTTT [XGTACX_site1094] | 8.59 ± 0.52 |
| AATGATCATAAATACACACACACAAAAAAAAAAAAA [CACACA_site6072] | 8.31 ± 0.52 |
| AAAGTAAAAGAAAGCACACACACATGTATATATGTA [CACACA_site3857] | 8.73 ± 0.31 |
| TTTCTCCCATTTTTTAGTACACAAAATATATATGTA [XGTACX_site7218] | 8.82 ± 0.36 |
| GATGGATTTATTTAAAGTACATATTTAAAAAACTGT [XGTACX_site7567] | 8.24 ± 0.25 |
| AAAAAAAAAAAATATACACACACATATATATATATA [CACACA_site9123] | 10 ± 0.45 |
| AACAACAATTTCGTCATACACACATTCAGAATATAT [CACACA_site2371] | 8.62 ± 0.47 |
| CAGGCGTGAAATATACGTACACACATTATTTATATT [XGTACX_site5337] | 8.52 ± 0.33 |
| ATATAAATTATTTACACACAAACATTTATACTTTTA [CACACA_site3448] | 8.51 ± 0.4 |
| TTTTGTTACGGCAAGGAAGTTAAGCATAAATGAATG [GTGCAC_negctrl_site173] | 8.79 ± 0.5 |
| AAGAAAAAAAATATATATGTATATATTATTTTAACA [TGCATGCA_negctrl_site534] | 8.14 ± 0.33 |
| ATATTTTTTGCTATTACACACAAGGGATTATTATTT [CACACA_site7776] | 8.75 ± 0.44 |
| ATGTTAATAACTTGTGGTACTGTTATAATTTAGTAA [XGTACX_site2114] | 8.4 ± 0.42 |
| TAATAATAGTCTAATACATGCATCGATAACGGAACT [TGCATGCA_site98] | 8.95 ± 0.34 |
| TATATACACATATATACACACACATATATATATATA [CACACA_site9127] | 9.88 ± 0.45 |
| ATATAAGTGTATCTAACACACAAATATGTAAAAATG [CACACA_site7006] | 8.56 ± 0.37 |
| ATATATCTACTGTGTTGTACTGTTAATATTTGAATA [XGTACX_site1931] | 8.68 ± 0.43 |
| ATAGAATAAATTTTGTCATTTATTCCTTATATATAA [GTGCAC_negctrl_site227] | 8.47 ± 0.36 |
| TAAAAATAGGAATACGCACACGATGATTAATTTATA [CACACA_site1835] | 8.29 ± 0.45 |
| AATTATATAACAAATTGTACGAATGAAAATATTATT [XGTACX_site4237] | 8.68 ± 0.47 |

| Sequence | gcPBM binding intensity (ln) |
| --- | --- |
| TTCCTTTTTTTTTATTGTACAAAAATATCAAAAAGG [XGTACX_site8505] | 8.44 ± 0.42 |
| ATTTTTTTTTTTTTTTTGGGGGGGTATACTTTTAAA [CACACA_negctrl_site1020] | 11.2 ± 0.18 |
| TTTTTAATTTTATATACACACATAAAATATATGAAG [CACACA_site3145] | 8.32 ± 0.36 |
| TTTATATATATTTATACACACAAACATAATACTACT [CACACA_site5161] | 8.55 ± 0.4 |
| TATAATGAGGATGATAGTACGTATTAGTATAAAAAA [XGTACX_site6623] | 8.8 ± 0.4 |
| AATTTATAAGAATAAAGTACTAAAGATACAACTTTA [XGTACX_site7153] | 8.03 ± 0.25 |
| ATAATACCCAAGCACACACACACACCGATATATATA [CACACA_site8344] | 8.82 ± 0.52 |
| TGTTATTATAACATTTTTTTCAAAATAGCTTTAGAA [CACACA_negctrl_site266] | 8.09 ± 0.52 |
| ATTAAAGGAAGCAAAACATGCAACAGCAATATTGCA [TGCATGCA_site452] | 8.79 ± 0.33 |
| ATATATTGGAGCACAACACACACAAGTATATATATG [CACACA_site8435] | 8.82 ± 0.6 |
| AAAAAAAAAAAAAAAACATGCACAAATTATAAGTGA [TGCATGCA_site378] | 8.82 ± 0.47 |
| ACTACATAATACTATTCACACATTTTTTTTTTTTTT [CACACA_site5794] | 8.74 ± 0.43 |
| AAAAAAAAATACAAAATAGCAATAAATACACAAACG [GTGCAC_negctrl_site707] | 8.85 ± 0.51 |
| AAAAAAAAAAAAAACACACAGAACAATATATAAATA [CACACA_site982] | 8.55 ± 0.56 |
| AAAAAATAGAATATAAAAATAAAGGAATTAAATTAA [XGTACX_negctrl_site420] | 8.39 ± 0.35 |
| AATTTTTTTTTAATCATGCACACTGTTAAAAGAATA [CACACA_site1240] | 8.47 ± 0.16 |
| TTCATATATTTAGGACGTACTTTTATATTACTATAT [XGTACX_site6456] | 8.77 ± 0.41 |
| TTTTAAAAATTAAGTGCATGTCCTTATAAAAAAAAA [TGCATGCA_site845] | 8.62 ± 0.46 |
| ATATGGAATAATACGCGTACACACATATATATATTA [XGTACX_site307] | 8.85 ± 0.38 |
| TCTTGATTATATAGTACTACACATTATAAAAAAATT [XGTACX_site2465] | 8.57 ± 0.26 |
| TTTATATCATTACAAGTGCATATCATCATAAATTCT [GTGCAC_site9878] | 8.45 ± 0.36 |
| TATATATAAATATATGTGCACTTTTTATATTTATAT | 9.06 ± 0.099 |
